Experimental data taken from article PMC3798263.
Changes are numbered by the printed parent chain. Results are given in words; binding and its absence hold for the method and conditions named. For some of these results: Binding seen in cells or lysates may run through a third protein. Where a sequence is shown, tags or fusion partners need not be part of it. Some binding calls cover weakened binding; strength is not graded here. Each block holds one binder with its values, some of them ahead of it.

Assays:
[1] = molecular target: T1, RS40 fused to EYFP-N or EYFP-C (BiFC) (Arabidopsis) (UniProt P92965); assay: split reporter; BiFC with EYFP-N and EYFP-C fusions in Arabidopsis protoplasts
T1 sequence: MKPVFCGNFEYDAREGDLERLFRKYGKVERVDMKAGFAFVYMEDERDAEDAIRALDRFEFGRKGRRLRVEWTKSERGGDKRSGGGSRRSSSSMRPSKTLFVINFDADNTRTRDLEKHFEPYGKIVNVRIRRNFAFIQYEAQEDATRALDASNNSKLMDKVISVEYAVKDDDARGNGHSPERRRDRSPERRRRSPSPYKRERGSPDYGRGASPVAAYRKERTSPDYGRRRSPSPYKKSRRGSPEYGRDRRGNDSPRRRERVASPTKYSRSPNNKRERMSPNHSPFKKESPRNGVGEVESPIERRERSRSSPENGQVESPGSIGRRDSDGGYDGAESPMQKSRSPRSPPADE

[2] = molecular target: T2, HOS5 fused to EYFP-N or EYFP-C (BiFC) (Arabidopsis) (UniProt Q8W4B1); assay: as above
T2 sequence: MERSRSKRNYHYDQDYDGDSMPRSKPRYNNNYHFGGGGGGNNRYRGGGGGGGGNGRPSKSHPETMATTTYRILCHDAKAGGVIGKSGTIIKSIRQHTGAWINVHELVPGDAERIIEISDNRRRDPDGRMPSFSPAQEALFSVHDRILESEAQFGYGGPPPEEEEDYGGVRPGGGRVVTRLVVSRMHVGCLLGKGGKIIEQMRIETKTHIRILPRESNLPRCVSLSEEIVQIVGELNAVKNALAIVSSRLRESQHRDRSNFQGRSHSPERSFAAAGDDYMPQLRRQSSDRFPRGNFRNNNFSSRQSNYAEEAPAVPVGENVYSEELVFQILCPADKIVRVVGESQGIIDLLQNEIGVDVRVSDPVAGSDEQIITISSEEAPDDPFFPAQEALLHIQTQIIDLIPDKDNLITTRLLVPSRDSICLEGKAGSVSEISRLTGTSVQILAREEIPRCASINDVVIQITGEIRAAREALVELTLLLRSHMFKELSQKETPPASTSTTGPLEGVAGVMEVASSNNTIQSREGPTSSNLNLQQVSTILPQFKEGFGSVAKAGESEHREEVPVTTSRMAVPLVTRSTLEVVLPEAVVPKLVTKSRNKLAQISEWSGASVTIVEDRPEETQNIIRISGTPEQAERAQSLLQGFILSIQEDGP

[3] = molecular target: T3, FRY2 fused to EYFP-N or EYFP-C (BiFC) (Arabidopsis) (UniProt Q5YDB6); assay: as above
T3 sequence: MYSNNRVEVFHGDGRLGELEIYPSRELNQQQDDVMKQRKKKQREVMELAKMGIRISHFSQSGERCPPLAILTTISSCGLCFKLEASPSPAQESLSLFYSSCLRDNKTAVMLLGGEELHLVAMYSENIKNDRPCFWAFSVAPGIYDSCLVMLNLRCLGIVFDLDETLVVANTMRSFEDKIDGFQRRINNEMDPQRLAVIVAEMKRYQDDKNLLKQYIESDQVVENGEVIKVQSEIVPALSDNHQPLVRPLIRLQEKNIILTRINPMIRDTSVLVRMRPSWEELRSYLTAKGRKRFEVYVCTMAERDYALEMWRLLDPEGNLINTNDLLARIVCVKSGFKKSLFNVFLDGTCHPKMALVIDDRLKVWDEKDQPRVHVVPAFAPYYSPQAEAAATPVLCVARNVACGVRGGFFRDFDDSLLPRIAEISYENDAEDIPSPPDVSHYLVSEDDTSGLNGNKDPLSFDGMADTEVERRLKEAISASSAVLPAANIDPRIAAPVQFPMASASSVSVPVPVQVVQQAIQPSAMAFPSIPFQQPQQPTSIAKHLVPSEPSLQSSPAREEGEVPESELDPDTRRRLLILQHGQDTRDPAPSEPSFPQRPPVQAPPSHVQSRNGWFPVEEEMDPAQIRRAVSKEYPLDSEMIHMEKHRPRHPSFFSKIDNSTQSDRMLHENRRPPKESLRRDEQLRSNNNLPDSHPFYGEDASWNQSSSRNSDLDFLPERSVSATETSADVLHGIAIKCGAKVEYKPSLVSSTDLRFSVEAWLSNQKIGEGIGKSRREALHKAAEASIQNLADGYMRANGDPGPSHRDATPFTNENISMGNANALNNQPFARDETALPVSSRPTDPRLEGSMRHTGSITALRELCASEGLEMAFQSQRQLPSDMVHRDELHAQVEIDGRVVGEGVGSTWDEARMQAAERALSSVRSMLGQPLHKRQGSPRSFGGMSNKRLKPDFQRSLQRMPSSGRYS

[4] = molecular target: T4, RS41 fused to EYFP-N or EYFP-C (BiFC) (Arabidopsis) (UniProt P92966); assay: as above
T4 sequence: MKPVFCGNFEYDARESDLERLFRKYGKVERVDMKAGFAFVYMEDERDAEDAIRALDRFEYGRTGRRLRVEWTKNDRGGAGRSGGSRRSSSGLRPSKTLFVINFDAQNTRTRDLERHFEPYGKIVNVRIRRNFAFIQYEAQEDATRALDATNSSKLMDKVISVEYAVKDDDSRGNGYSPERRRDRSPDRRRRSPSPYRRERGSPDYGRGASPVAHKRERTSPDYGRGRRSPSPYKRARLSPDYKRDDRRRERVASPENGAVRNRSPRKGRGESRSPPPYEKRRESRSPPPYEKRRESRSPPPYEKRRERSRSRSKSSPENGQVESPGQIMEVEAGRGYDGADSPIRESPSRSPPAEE

[5] = molecular target: T5, hos5-1 mutant HOS5 (Gly233 to Ser), yeast two-hybrid fusion (Arabidopsis) (UniProt Q8W4B1); assay: two-hybrid; pairwise in yeast strain AH109: HOS5 in pBD (pGBK), FRY2 in pAD (pGAD); deletion constructs and hos5-1 against the full-length partner; growth on -TLHA medium plus X-alpha-Gal, -TL as transformation control
T5 sequence: T2 sequence with G233S

[6] = molecular target: T6, HOS5 (High Osmotic Stress Gene Expression 5), full length, yeast two-hybrid fusion (Arabidopsis) (UniProt Q8W4B1); assay: as above
T6 sequence: T2 sequence

[7] = molecular target: T6, HOS5 (High Osmotic Stress Gene Expression 5), full length, yeast two-hybrid fusion (Arabidopsis); assay: two-hybrid; library screen with HOS5 as bait
[8] = molecular target: T6, HOS5 (High Osmotic Stress Gene Expression 5), full length, yeast two-hybrid fusion (Arabidopsis); assay: two-hybrid; library screen with HOS5 as bait; hit HOS5 itself, data not shown
[9] = molecular target: T7, FIERY2/RNAP II CTD phosphatase-like 1 (FRY2/CPL1), full length, yeast two-hybrid fusion (Arabidopsis) (UniProt Q5YDB6); assay: two-hybrid; library screen with FRY2 as bait; unpublished data
T7 sequence: T3 sequence

binding [1]: no binding | binding [2]: no binding | binding [3]: no binding | binding [4]: no binding
B1: HAP5C fused to EYFP-C (BiFC negative control) (protein, UniProt Q8L4B2 1-231)
chain: MDQQDHGQSGAMNYGTNPYQTNPMSTTAATVAGGAAQPGQLAFHQIHQQQQQQQLAQQLQAFWENQFKEIEKTTDFKNHSLPLARIKKIMKADEDVRMISAEAPVVFARACEMFILELTLRSWNHTEENKRRTLQKNDIAAAVTRTDIFDFLVDIVPREDLRDEVLGSIPRGTVPEAAAAGYPYGYLPAGTAPIGNPGMVMGNPGGAYPPNPYMGQPMWQQQAPDQPDQEN

binding [5]: binds | binding [6]: binds | binding [7]: binds
B2: FIERY2/RNAP II CTD phosphatase-like 1 (FRY2/CPL1), full length, yeast two-hybrid fusion (protein, UniProt Q5YDB6 1-967)
chain: T3 sequence

binding [8]: binds | binding [6]: binds | binding [9]: binds
B3: HOS5 (High Osmotic Stress Gene Expression 5), full length, yeast two-hybrid fusion (protein, UniProt Q8W4B1 1-652)
chain: T2 sequence
